Laboratory results as given in the supplement of paper PMC12217912.
Some of the results follow. The full chains were built here from the parent and the listed change. Values near 0.05 are background.

B1: TEV protease; numbered along this chain (parent)
chain: MGESLFKGPRDYNPISSSICHLTNESDGHTTSLYGIGFGPFIITNKHLFRRNNGTLVVQSLHGVFKVKDTTTLQQHLVDGRDMIIIRMPKDFPPFPQKLKFREPQREERICLVTTNFQTKSMSSMVSDTSCTFPSGDGIFWKHWIQTKDGQCGSPLVSTRDGFIVGIHSASNFTNTNNYFTSVPKNFMELLTNQEAQQWVSGWRLNADSVLWGGHKVFMVKPEEPFQPVKEATQL

Variants of: B1
Assay: raw area under fraction-flipped curve 0-4 h after induction (AUC4h, not background-subtracted), DNA-recorder readout of cleavage of the substrate (dimensionless); higher = more cleavage of the substrate by the protease variant
Conditions: temperature: 34 °C; time window: 0-4 h after rhamnose induction
Experimental: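 In vivo DNA recorder in E. coli TOP10(DE3) ΔrhaA at 34 °C. Each TEVp single-site mutant (parent TEVp 0) is paired with a single-site variant of the 7-mer TEVs (canonical ENLYFQ|S). The substrate sits between flexible linkers in a Bxb1-sfGFP-TEVs-SsrA fusion, so cleavage stabilises Bxb1 and speeds flipping of a recombination array, read by NGS. The value is the raw area under the fraction-flipped curve over 0-4 h after rhamnose induction (AUC4h), with ≥20 reads per time point. It is not background-subtracted; inactive controls average about 0.047.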
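Note: Bxb1 expression induced with 0.2% (w/v) L-rhamnose at OD600 near 0.5, cultures sampled hourly, flipped fraction per protease–substrate barcode pair counted by paired-end Illumina sequencing.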

Variant	area with substrate ENLYAQS	area with substrate ENLYCQS	area with substrate ENLYDQS	area with substrate ENLYEQS	area with substrate ENLYGQS	area with substrate ENLYHQS	area with substrate ENLYIQS	area with substrate ENLYKQS	area with substrate ENLYLQS	area with substrate ENLYMQS	area with substrate ENLYNQS	area with substrate ENLYPQS	area with substrate ENLYQQS	area with substrate ENLYRQS	area with substrate ENLYSQS	area with substrate ENLYVQS	area with substrate ENLYWQS	area with substrate ENLYYQS	area with substrate ENLYTQS
T44I	0.0547	0.081	0.0636	0.0788	0.0538	0.0082	0.0541	0.0555	0.055	0.0551	0.0517	0.0515	0.0555	0.0601	0.0422	0.0577	0.0554	–	–
N45E	0.0696	0.0628	0.0623	0.0612	0.0591	0.0611	0.0713	0.0604	–	0.0587	0.0635	0.0538	0.0548	0.0785	–	0.0709	0.0895	0.0404	–
N45P	0.076	–	0.057	–	–	0.0648	0.0736	–	–	–	–	0.0684	0.0764	0.0513	–	0.0741	–	0.0545	0.0626
F49Q	0.0483	0.0604	0.0572	0.0532	0.0627	0.0499	0.0598	0.0618	0.0425	–	0.0581	0.052	0.0525	0.0548	0.0638	0.0574	–	0.0327	–
F49Y	0.0656	–	0.0612	0.0551	0.0358	–	0.0906	0.057	0.0636	0.07	0.0641	0.0683	–	0.0744	0.0616	0.0741	0.0598	0.0472	0.0481
N52Q	0.0649	0.094	0.0369	–	0.0591	0.0658	–	0.056	0.0472	0.0705	0.0609	0.0538	0.0646	–	0.0722	–	0.0622	0.0788	–
G54A	0.0578	0.0718	0.06	0.0609	0.0639	0.0533	0.0944	0.049	–	0.0548	0.0544	0.0618	0.0677	0.0601	–	0.0725	0.0653	–	0.0509
G54C	0.0703	0.078	0.0669	0.0698	0.0529	0.0684	0.0772	0.042	0.0714	0.066	0.0613	0.0727	0.0452	0.049	0.0562	0.0753	0.0618	0.0657	0.0612
G54K	0.0476	–	0.0588	0.0502	0.0526	–	–	0.0751	–	–	0.0589	0.0418	0.0794	–	0.0652	–	0.0497	–	–
G54M	0.0642	–	0.0547	0.0542	0.0537	0.0561	–	0.0545	0.0641	–	0.0496	0.0559	0.0623	0.0602	0.0618	0.0745	–	–	–
Q59G	0.0404	–	0.05	0.0718	0.0711	0.066	0.13	0.054	–	0.0756	0.0666	0.0694	0.0602	0.0513	0.0549	0.118	–	–	–
S60C	0.0752	0.117	0.0671	0.0635	0.0609	0.0705	0.142	0.048	–	0.0889	0.0625	–	0.0619	0.0689	0.0779	0.0759	0.073	0.0594	0.0831
